# Laboratory results as given in the supplement of paper PMC4166925.
# ± gives the standard deviation of the averaged measurements. Whole data set: some 33,000 sequences, median “E-score (dimensionless, -0.5 to 0.5)” near -0.046, cut for the highest 2% near 0.36. The list shows a part of the results.
# System: T1, SpTbr T-box DNA-binding domain (GST fusion)
# T1 sequence: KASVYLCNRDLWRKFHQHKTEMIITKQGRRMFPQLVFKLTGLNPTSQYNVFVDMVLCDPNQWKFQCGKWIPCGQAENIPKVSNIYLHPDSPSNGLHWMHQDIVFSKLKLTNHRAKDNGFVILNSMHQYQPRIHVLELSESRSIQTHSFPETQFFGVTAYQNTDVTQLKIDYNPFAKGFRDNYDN
# Test: PBM E-score of 8-mer (E-score (dimensionless, -0.5 to 0.5)); Tbr is Tbrain of the sea star Patiria miniata (Pm) or the sea urchin Strongylocentrotus purpuratus (Sp); higher = stronger binding preference; most listed sequences are background and not binding sites
# Conditions: the construct has about 5 more residues each side
# Procedure, shortened: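 Primer extension turned Universal Agilent oligonucleotide arrays double-stranded. They were incubated with 200 nM protein in PBS (pH 7.5); the protein was a GST-fused Tbr T-box DNA-binding domain expressed in BL21 E. coli at 20 °C and purified on glutathione. Every ungapped 8-mer was scored from the scanned, quantified probe intensities, and the Universal PBM Analysis Suite gave each an enrichment E-score averaged over duplicate arrays.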
row,Sequence,PBM E-score of 8-mer
1,CGAAGTGC,0.272 ± 0.024
2,CCTAGGCG,-0.0224 ± 0.056
3,TTACTAAA,-0.1504 ± 0.00043
4,ATAATGGA,-0.0896 ± 0.058
5,GTCAGAAA,-0.086 ± 0.061
6,ACACAACC,0.072 ± 0.08
7,CATGATTC,-0.136 ± 0.037
8,GGCAAGTA,-0.0202 ± 0.02
9,AATAAAAC,0.00677 ± 0.12
10,CGTGCAGC,0.0785 ± 0.043
11,GGGGGCCA,-0.016 ± 0.048
12,ATTACTAA,-0.163 ± 0.074
13,ACCCATTC,-0.15 ± 0.062
14,ATACTATG,-0.111 ± 0.086
15,ACATGCTG,0.0406 ± 0.061
16,CCTTAACG,-0.0454 ± 0.1
17,AAATGCGG,0.0263 ± 0.025
18,CACCACCA,0.145 ± 0.0054
19,ACAATGTG,0.315 ± 0.01
20,GTTTGAAA,-0.106 ± 0.041
21,CGCTTACC,0.027 ± 0.061
22,GCCACATA,0.164 ± 0.021

row,Sequence,PBM E-score of 8-mer
1,ACATGCGT,0.0995 ± 0.026
2,CGACGGAC,0.064 ± 0.0015
3,GATGTGTA,0.316 ± 0.016
4,CCATTGGA,-0.0636 ± 0.036
5,CTTTGCGC,0.22 ± 0.034
6,CATTTCGC,0.198 ± 0.018
7,ATCAAGCG,0.0706 ± 0.0077
8,AAAATGAA,-0.117 ± 0.0059
9,GCGCATTA,-0.0563 ± 0.021
10,AGATCTTA,-0.217 ± 0.0091
11,GTTACTCA,-0.0158 ± 0.021
12,CTTGCGCA,0.113 ± 0.01
13,CCGACGGC,-0.0278 ± 0.065
14,CGTGATGC,0.0423 ± 0.051
15,CGGGATGC,-0.205 ± 0.019
16,CGTGTCAA,0.4367 ± 0.0011
17,CAGTCCCG,-0.0798 ± 0.02
18,GCGATTAA,0.153 ± 0.073
19,AACTATAT,-0.0107 ± 0.13
20,AGTAGCTG,-0.0208 ± 0.045
21,CGTGCTAG,0.141 ± 0.05
22,GAGGCGTA,0.121 ± 0.0013

row,Sequence,PBM E-score of 8-mer
1,ATCATCTG,-0.164 ± 0.031
2,AAGATTTC,-0.0323 ± 0.07
3,ACCATTTG,-0.106 ± 0.023
4,TCAGACCA,-0.0104 ± 0.016
5,GAACTAAA,-0.024 ± 0.011
6,AGCTTGAA,-0.159 ± 0.078
7,CCTTATGA,0.0906 ± 0.065
8,CCTTTCAG,-0.131 ± 0.026
9,GGAGCGCA,-0.0559 ± 0.069
10,CAAGTTAC,0.0936 ± 0.015
11,CGCTTCCA,0.0706 ± 0.0021
12,GTTTGGAA,-0.13 ± 0.041
13,ATTTTACC,-0.203 ± 0.0053
14,GGACAGAC,-0.0879 ± 0.013
15,CGCGACAC,0.35396 ± 0.00035
16,ATAGGCGG,-0.0783 ± 0.012
17,CGAGGAAG,-0.0709 ± 0.015
18,AGTGCGTA,0.0849 ± 0.013
19,GAAGGATC,-0.0471 ± 0.023
20,ACCACGTA,-0.00341 ± 0.0051
21,CGTGAGCA,0.105 ± 0.039
22,CAATACCG,-0.201 ± 0.023

row,Sequence,PBM E-score of 8-mer
1,ACTTCTCA,0.118 ± 0.074
2,GACAGTGC,0.152 ± 0.025
3,AGCATGGG,-0.214 ± 0.024
4,GAATGAGA,-0.132 ± 0.063
5,AATGTGCA,0.0581 ± 0.05
6,TTGCGAAA,0.33 ± 0.038
7,AAGTTTCC,-0.00849 ± 0.04
8,AAGCAAGC,-0.16651 ± 8.5e-05
9,GTAAATAC,-0.229 ± 0.044
10,AGTGAGCG,0.155 ± 0.072
11,GGAGTGCA,-0.153 ± 0.0039
12,GAAAAGTA,-0.0537 ± 0.086
13,AGAGCTAG,-0.211 ± 0.02
14,CTAGAGGA,-0.172 ± 0.0027
15,GTAGTCAC,0.135 ± 0.036
16,ACTTCGAT,0.0203 ± 0.036
17,CGCTACTC,0.17 ± 0.036
18,AAGGGGTG,0.251 ± 0.024
19,GCCTGCAA,-0.0777 ± 0.016
20,AGTGTAGC,0.129 ± 0.0052
